Source: ChEMBL document CHEMBL4610118 (J Med Chem, 2020)

Assays:
[1] = target: CDK9/cyclin T1 (Homo sapiens, UniProt P50750)
[2] = target: CDK2/Cyclin A1 (Homo sapiens, UniProt P24941); test: biochemical
[3] = target: CDK7/Cyclin H/MNAT1 (Homo sapiens, UniProt P50613)
[4] = target: Cyclin-dependent kinase 1/cyclin B1 (Homo sapiens, UniProt P06493)
[5] = target: CDK3/Cyclin E (Homo sapiens, UniProt Q00526)
[6] = target: Cyclin-dependent kinase 4/cyclin D1 (Homo sapiens, UniProt P11802)
[7] = target: Cyclin-dependent kinase 5/CDK5 activator 1 (Homo sapiens, UniProt Q00535)
[8] = target: Cyclin-dependent kinase 6 (Homo sapiens, UniProt Q00534)
[9] = target: CDK8/Cyclin C (Homo sapiens, UniProt P49336)
[10] = target: CDK12/Cyclin K (Homo sapiens, UniProt Q9NYV4)
[11] = target: Cyclin-dependent kinase 13/Cyclin-K (Homo sapiens, UniProt Q14004)
[12] = system: HAP1; test: cells; conditions: Homo sapiens, HAP1, 72 h
[13] = system: HAP1; test: cells; conditions: Homo sapiens, HAP1, 72 h; remark: listed apart in the source
[14] = system: HAP1; test: cells; conditions: Homo sapiens, HAP1, 72 h; remark: listed apart in the source
[15] = system: HAP1; test: cells; conditions: Homo sapiens, HAP1, 72 h; remark: listed apart in the source
[16] = in vivo; conditions: Swiss albino, mouse, iv, 1 mg/kg
[17] = in vivo; conditions: Swiss albino, mouse, iv, 1 mg/kg; remark: listed apart in the source
[18] = in vivo; conditions: Swiss albino, mouse, iv, 1 mg/kg; remark: listed apart in the source
[19] = in vivo; conditions: Swiss albino, mouse, iv, 1 mg/kg; remark: listed apart in the source
[20] = in vivo; conditions: Swiss albino, mouse, iv, 1 mg/kg; remark: listed apart in the source
[21] = in vivo; conditions: Swiss albino, mouse, ip, 5 mg/kg
[22] = in vivo; conditions: Swiss albino, mouse, ip, 5 mg/kg; remark: listed apart in the source
[23] = in vivo; conditions: Swiss albino, mouse, ip, 5 mg/kg; remark: listed apart in the source
[24] = in vivo; conditions: Swiss albino, mouse, ip, 5 mg/kg; remark: listed apart in the source
[25] = in vivo; conditions: Swiss albino, mouse, ip, 5 mg/kg; remark: listed apart in the source
[26] = in vivo; conditions: Swiss albino, mouse, po, 10 mg/kg
[27] = in vivo; conditions: Swiss albino, mouse, po, 10 mg/kg; remark: listed apart in the source
[28] = in vivo; conditions: Swiss albino, mouse, po, 10 mg/kg; remark: listed apart in the source
[29] = in vivo; conditions: Swiss albino, mouse, po, 10 mg/kg; remark: listed apart in the source
[30] = target: Cyclin-dependent kinase 14/Cyclin-Y (Homo sapiens, UniProt O94921); test: biochemical
[31] = target: Cyclin-Y/Cyclin-dependent kinase 16 (Homo sapiens, UniProt Q00536); test: biochemical

C=CC(=O)Nc1ccc(C(=O)N2CCC[C@@H](Nc3ncc(SCc4ncc(C(C)(C)C)o4)s3)C2)cc1C(F)(F)F
IC50 [1]: 87.6 nM
IC50 [2]: 142 nM

C=CC(=O)Nc1ccc(C(=O)N2CC(Nc3ncc(SCc4ncc(C(C)(C)C)o4)s3)CC(F)(F)C2)cc1 (centres undefined)
IC50 [1]: 1100 nM
IC50 [2]: 1480 nM

C=CC(=O)Nc1ccc(C(=O)N2CCC[C@@H](Nc3nc(C)c(SCc4ncc(C(C)(C)C)o4)s3)C2)cc1
IC50 [1]: 2870 nM
IC50 [2]: > 10000 nM

C=CC(=O)Nc1ccc(C(=O)N2CCC[C@@H](Nc3ncc(SCc4ccncc4)s3)C2)cc1
IC50 [1]: > 10000 nM
IC50 [2]: > 10000 nM

C=CC(=O)N1CCC(C(=O)Nc2ncc(SCc3ncc(C(C)(C)C)o3)s2)CC1
IC50 [3]: 457 nM

C=CC(=O)Nc1cccc(C(=O)Nc2ncc(SCc3ncc(C(C)(C)C)o3)s2)c1
IC50 [3]: 1140 nM

C=CC(=O)Nc1ccc(C(=O)N2CCC[C@@H](Nc3ncc(SCc4ncc(C(C)(C)C)o4)s3)[C@H]2C)cc1
IC50 [1]: 257 nM
IC50 [2]: 1420 nM

C=CC(=O)Nc1ccc(C(=O)N2CCC[C@@H](Nc3ncc(SCc4ncc(C(C)(C)C)o4)s3)C2)cc1F
IC50 [1]: 138 nM
IC50 [2]: 211 nM

C=CC(=O)Nc1ccc(C(=O)N2C[C@H](Nc3ncc(SCc4ncc(C(C)(C)C)o4)s3)CC[C@@H]2C)cc1
IC50 [1]: 14.7 nM
IC50 [2]: 73.2 nM

C=CC(=O)Nc1ccc(C(=O)N2CCCC(C(=O)Nc3ncc(SCc4ncc(C(C)(C)C)o4)s3)C2)cc1 (centres undefined)
IC50 [3]: 99 nM

C=CC(=O)Nc1ccc(C(=O)N2CCC[C@@H](Nc3ncc(Cl)c(SCc4ncc(C(C)(C)C)o4)n3)C2)cc1
IC50 [1]: > 10000 nM
IC50 [2]: > 10000 nM

C=CC(=O)Nc1ccc(C(=O)N2CCC[C@@H](Nc3ncc(SCc4ncc(C(C)(C)C)o4)s3)C2)cc1
IC50 [4]: 1470 nM
IC50 [5]: 366 nM
IC50 [6]: > 10000 nM
IC50 [7]: 1130 nM
IC50 [8]: > 10000 nM
IC50 [9]: 4490 nM
IC50 [10]: 25 nM
IC50 [11]: 49 nM
IC50 [12]: 8.41 nM
IC50 [13]: 10.2 nM
IC50 [14]: 116 nM
IC50 [15]: 246 nM
Cmax [16]: 1310 ng/mL
AUC(0-t) [17]: 162 ng·h/mL
half-life [18]: 10.2 min
clearance [19]: 102 mL/min/kg
Vd [20]: 0.73 L/kg
Tmax [21]: 4.8 min
Cmax [22]: 885 ng/mL
AUC(0-t) [23]: 394 ng·h/mL
half-life [24]: 9 min
bioavailability [25]: 49%
Tmax [26]: 15 min
Cmax [27]: 556 ng/mL
AUC(0-t) [28]: 412 ng·h/mL
bioavailability [29]: 25%
IC50 [30]: 3130 nM
IC50 [31]: 3830 nM

C=CC(=O)Nc1ccc(C(=O)N2CCC[C@@H](Nc3ncc([S+]([O-])Cc4ncc(C(C)(C)C)o4)s3)C2)cc1 (some centres undefined)
IC50 [1]: 9220 nM
IC50 [2]: > 10000 nM
